Paper PMC6919601, “Identification of Plasmodium dipeptidyl aminopeptidase allosteric inhibitors by high throughput screening” (PLoS ONE, 2019)
Out of some 110,000 compounds screened, about 230 (0.21%) showed an effect of 50% or more. The list shows a part of the results.

Target: DPAP1 (Plasmodium falciparum, UniProt Q8IIJ9)
Assay: primary screen, percent inhibition; read by cleavage of a fluorogenic dipeptide substrate; higher = more effect of the substance
Set-up: species or system P. falciparum D10 trophozoite lysates; single well
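Also: 30 min substrate incubation versus DMSO and 10 µM JCP410 controls.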

Sequence of DPAP1 (Q8IIJ9 whole entry, looked up): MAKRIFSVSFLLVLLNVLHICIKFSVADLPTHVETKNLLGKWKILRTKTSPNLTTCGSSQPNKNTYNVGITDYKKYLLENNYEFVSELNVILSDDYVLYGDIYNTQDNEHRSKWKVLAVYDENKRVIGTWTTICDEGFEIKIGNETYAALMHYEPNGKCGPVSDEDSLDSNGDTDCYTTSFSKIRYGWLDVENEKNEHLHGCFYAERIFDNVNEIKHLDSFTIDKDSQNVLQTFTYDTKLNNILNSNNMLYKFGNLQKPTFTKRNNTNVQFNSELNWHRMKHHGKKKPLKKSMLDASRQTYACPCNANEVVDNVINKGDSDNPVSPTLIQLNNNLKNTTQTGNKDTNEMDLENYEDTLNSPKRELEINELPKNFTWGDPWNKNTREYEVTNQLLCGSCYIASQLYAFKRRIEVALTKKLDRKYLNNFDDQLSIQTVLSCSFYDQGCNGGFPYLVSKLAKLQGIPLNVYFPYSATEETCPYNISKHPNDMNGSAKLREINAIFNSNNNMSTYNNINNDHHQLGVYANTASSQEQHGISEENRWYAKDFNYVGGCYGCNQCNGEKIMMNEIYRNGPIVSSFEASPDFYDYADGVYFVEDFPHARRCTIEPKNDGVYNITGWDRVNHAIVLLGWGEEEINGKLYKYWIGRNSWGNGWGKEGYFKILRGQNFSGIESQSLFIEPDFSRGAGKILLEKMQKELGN

| SMILES | % Inhibition @ 10 uM |
| --- | --- |
| CC1(C)CC(=O)C2=C(C1)N(c1nc[nH]n1)C(N)=C(C#N)C2c1ccccc1C(F)(F)F (stereo not shown) | -0.105% |
| CCOc1ccc(C(C)(C)C)cc1S(=O)(=O)n1c(C)nc2ccccc21 | 0.627% |
| CCn1c2ccccc2c2cc(CN3CCCCC3)ccc21 | -6.62% |
| O=[N+]([O-])c1ccc(N2CCCCCC2)c2nonc12 | -2.44% |
| CCOC(=O)C(=O)Nn1cnnc1 | 4.86% |
| CCCc1cc(O)nc(SC/C=C/c2ccccc2)n1 | -5.32% |
| O=C(Nc1cccnc1)c1cccc(C(=O)Nc2cccnc2)c1 | 5.08% |
| O=C(Nc1cnn(Cc2ccc(F)cc2)c1)C12CC3CC(CC(C3)C1)C2 | 6.15% |
| Cn1c(-c2ccccc2)c(C=O)c2ccccc21 | -0.053% |
| CN(C)CCNC(=O)c1cc2c(s1)-c1ccccc1SC2 | -5.89% |
| CC(C)CC(=O)Nc1cccc(NC(=O)CC(C)C)c1 | 0.993% |
| CCOC(=O)c1cc(-c2ccccc2)sc1NC(=O)CCN1CCOCC1 | -3.21% |
| O=C(c1cc2c(s1)-c1ccccc1S(=O)(=O)C2)N1CCC(N2CCCCC2)CC1 | 0.953% |
| Oc1cccc2cnccc12 | -5.38% |
| COc1ccccc1CNc1nc2ccc(Cl)cc2nc1-n1nc(C)cc1C | -1.14% |
| COc1ccc(CNS(=O)(=O)c2cc(Cl)ccc2Cl)cc1 | 0.247% |
| Cc1oc(-c2ccc3c(c2)OCCO3)cc1C(=O)NC(C(=O)O)C(C)C (stereo not shown) | -9.34% |
| CSC1=C(C#N)C(c2sccc2C)CC(=O)N1 (stereo not shown) | -3.14% |
| N#Cc1ccccc1NC(=O)Nc1cccc(Cl)c1 | 2.62% |
| CCCN(CCC)C(=O)Cn1c(SCc2ccc(F)cc2)nc2cccnc21 | -1.6% |
| N#C/C(=C\c1ccco1)c1nc(C2CC2)cs1 | 5.03% |
| CCOC(=O)c1cc2n(n1)C(C(F)(F)F)CC(c1ccccc1)N2 (stereo not shown) | -0.142% |
| Cn1c(NC(=O)C2CCN(C(=O)c3cnn(-c4ccccc4)c3-n3cccc3)CC2)nc2ccccc21 | 4.95% |
| CN1CCN(S(=O)(=O)c2cnccc2N2CCN(CCO)CC2)CC1 | -5.13% |
| CC(C)COc1ccc2[nH]c3c(c2c1)CCCC3=O | 0.0792% |

| SMILES | % Inhibition @ 10 uM |
| --- | --- |
| CC(C(=O)NCCc1c[nH]c2ccccc12)n1sc2ccccc2c1=O (stereo not shown) | -3.43% |
| Cc1ccc(C)c(N2C(=O)c3ccccc3C2=O)c1 | 0.331% |
| COc1ccc(-c2cc(C(F)(F)F)nc(SCC(=O)NCCCn3ccnc3)n2)cc1 | 11.3% |
| Fc1ccccc1N1CCN(C2CCN(CCc3ccccc3)CC2)CC1 | 3.48% |
| O=C(O)c1ccc(NS(=O)(=O)c2cccc(C(=O)Nc3ccc([N+](=O)[O-])cc3)c2)cc1 | 1.64% |
| O=C(O)CCn1c2ccc(Cl)cc2c2cc(Cl)ccc21 | 3.06% |
| COc1ccc(S(=O)(=O)NC2CC3CCC2C3)cc1C (stereo not shown) | -12.3% |
| Cc1ccc(CN(Cc2ccco2)C(=O)COc2ccc(C)cc2)cc1 | 1.25% |
| C=CCOc1ccc(C2C3=C(CC(C)(C)CC3=O)OC3=C2C(=O)CC(C)(C)C3)cc1OC | -7.34% |
| CCc1cccc2c(C(=O)C(F)(F)F)cn(CC(=O)NCC3CCCO3)c12 (stereo not shown) | 5.52% |
| CC(=O)Nc1ccc(C(C)(C)C)cc1NC(C)=O | 0.992% |
| COc1cccc(OC)c1C(=O)N1CCN(Cc2cccnc2)CC1 | 5.55% |
| CCSc1nc(-c2ccc(OC)cc2)cc(-c2ccc(OC)cc2)c1C#N | -7.35% |
| O=C(O)CCC1COc2ccccc2O1 (stereo not shown) | -5.38% |
| O=C1CSC2(C(=O)Nc3ccccc32)N1c1ccc(Cl)c(Cl)c1 (stereo not shown) | -0.292% |
| Cc1nc2ccccc2n1CCc1nc2c3ccccc3nc(NCCCN3CCCCC3)n2n1 | -2.42% |
| COc1ccc(C(=O)Nc2cccc(C(F)(F)F)c2)c(OC)c1 | 4.49% |
| CC(C)CC(=O)C1=C(O)C(=O)N(Cc2ccccc2)C1c1ccccc1 (stereo not shown) | 4.61% |
| CC1CC(C)CN(S(=O)(=O)c2ccc(F)cc2)C1 (stereo not shown) | 3.95% |
| COc1ccc2cc3c(N)nn(C(=O)c4cc(OC)c(OC)c(OC)c4)c3nc2c1 | -2.14% |
| CCC(C)NC(=O)c1ccc(NC(=O)C2(c3ccc(OC)cc3)CCOCC2)cc1 (stereo not shown) | 3.17% |
| COc1ccc(NC(=O)c2sc3nc4ccccc4cc3c2N)cc1 | 5.48% |
| O=C(NCCCN1CCc2ccccc2C1)C1CCCN(S(=O)(=O)N2CCCCCC2)C1 (stereo not shown) | 3.48% |
| COc1cccc(C2C=C(c3ccc(C)c(C)c3)Nc3ncnn32)c1OC (stereo not shown) | -1.48% |
